# Results as given in the antibiotic and cytotoxicity screens of Wong et al. (2023).
# Some of the results follow.
# How the values were obtained:
# HSkMC = human skeletal muscle cells; experiment: cytotoxicity call (relative viability < 0.9); settings: 10 µM
# HepG2 = experiment: cytotoxicity call (relative viability < 0.9); settings: 10 µM
# S. aureus RN4220 = experiment: growth inhibition call (relative growth <= 0.2); settings: 50 µM
SMILES,cytotoxicity call (HSkMC),cytotoxicity call (HepG2),growth inhibition call (S. aureus RN4220)
O=C1Nc2ccccc2Oc2cc(Sc3ccccc3)ccc21,inactive,inactive,inactive
CO[C@@H]1CN(C)C(=O)c2cc(NS(=O)(=O)c3cn(C)cn3)ccc2OC[C@@H](C)N(CC2CC2)C[C@@H]1C,inactive,inactive,inactive
CC(C)NC(=O)N(C)C[C@@H]1Oc2ccc(NC(=O)CCN3CCOCC3)cc2C(=O)N([C@H](C)CO)C[C@H]1C,inactive,inactive,inactive
O=C(C[C@@H]1CC[C@@H]2[C@H](COC[C@H](O)CN2S(=O)(=O)c2ccc(Cl)cc2)O1)N1CCc2ccccc2C1,inactive,inactive,inactive
CNC[C@H]1Oc2c(NS(=O)(=O)c3cn(C)cn3)cccc2C(=O)N([C@H](C)CO)C[C@H]1C,inactive,inactive,inactive
COc1ccc2c3c([nH]c2c1)[C@@H](CO)N(C[C@]13CCN(CC1)S(=O)(=O)c1cn(cn1)C)C(=O)Nc1ccc(cc1)F,inactive,inactive,inactive
CN(C)c1n[nH]c(=O)[nH]c1=O,inactive,inactive,inactive
CCc1nc2ccc(C(=O)N3CCN(S(=O)(=O)CC)CC3)cn2c1N(CC)C(=O)NCCc1ccccc1,inactive,inactive,inactive
COc1ccc2cc3[n+](cc2c1OC)CCc1cc2c(cc1-3)OCO2.[Cl-],inactive,active,inactive
C#CCOC(=O)[C@@H]1[C@@H](C(=O)O)[C@@H]2C=C[C@@H]1C2,inactive,inactive,inactive
CCCCC(=O)N(Cc1ccc(-c2ccccc2-c2nn[nH]n2)cc1)C(C(=O)O)C(C)C (stereo not drawn),inactive,inactive,inactive
Cc1cc(O)c(C=O)c(O)c1C(=O)O,inactive,inactive,inactive
C[C@H](CO)N1C[C@H](C)[C@@H](CN(C)S(=O)(=O)c2ccccc2F)Oc2cc(-c3ccncc3)ccc2S1(=O)=O,inactive,inactive,inactive
Cc1noc(C)c1NC(=O)N(C)C[C@@H]1Oc2ccc(NC(=O)c3ccncc3)cc2C(=O)N([C@@H](C)CO)C[C@@H]1C,inactive,inactive,inactive
C[C@@H]1CCCCO[C@H](CN(C)Cc2ccc(C(F)(F)F)cc2)[C@H](C)CN([C@H](C)CO)C(=O)c2cc(N(C)C)ccc2O1,inactive,active,inactive
Cc1noc(C)c1NC(=O)Nc1ccc2c(c1)C(=O)N([C@H](C)CO)C[C@H](C)[C@@H](CN(C)Cc1ccc(C(=O)O)cc1)OCCCC[C@H](C)O2,inactive,inactive,inactive
Cc1ccc(F)cc1NC(=O)CN,inactive,inactive,inactive
C[C@H]1CN([C@@H](C)CO)C(=O)c2cc(NC(=O)Nc3ccc(F)cc3)ccc2O[C@H]1CN(C)CC1CCCCC1,inactive,inactive,inactive
Cn1cnc(=N)c2[nH]cnc21,inactive,inactive,inactive

SMILES,cytotoxicity call (HSkMC),cytotoxicity call (HepG2),growth inhibition call (S. aureus RN4220)
Cc1noc(C)c1S(=O)(=O)Nc1ccc2c(c1)CC(=O)N([C@@H](C)CO)C[C@@H](C)[C@H](CN(C)CC1CC1)O2,inactive,inactive,inactive
C[C@@H]1CN([C@H](C)CO)C(=O)c2cc(NC(=O)Cc3cn(C)c4ccccc34)ccc2O[C@H]1CN(C)S(C)(=O)=O,inactive,inactive,inactive
CC(C)NC(=O)N(C)C[C@H]1Oc2ccc(NC(=O)NC3CCCCC3)cc2C(=O)N([C@@H](C)CO)C[C@@H]1C,inactive,inactive,inactive
C[C@H]1CN([C@@H](C)CO)C(=O)c2cccc(NS(C)(=O)=O)c2O[C@@H]1CN(C)Cc1ccc(C(F)(F)F)cc1,inactive,inactive,inactive
Cc1noc(C)c1S(=O)(=O)N(C)C[C@H]1Oc2ccc(NS(=O)(=O)c3ccc(Cl)cc3)cc2C(=O)N([C@H](C)CO)C[C@H]1C,inactive,inactive,inactive
C[C@H](CO)N1C[C@H](C)[C@@H](CN(C)C(=O)Nc2ccccc2)OCCCC[C@H](C)Oc2ccc(NC(=O)Nc3cccc4ccccc34)cc2C1=O,inactive,inactive,inactive
COc1ccc2c3c(n(c2c1)C)[C@H](CO)N(C[C@]13CN(C1)C(=O)Nc1cccc(c1)F)S(=O)(=O)C,inactive,inactive,inactive
NNC(=O)c1ccccn1,inactive,inactive,inactive
CCS(=O)(=O)N1C[C@]2(C1)CN([C@@H](CO)c1c2c2ccc(cc2n1C)OC)S(=O)(=O)c1ccccc1,inactive,inactive,inactive
Cc1nccn1C[C@H](C)C(=O)O,inactive,inactive,inactive
C[C@@H]1CN([C@@H](C)CO)C(=O)c2cc(NC(=O)Cc3ccccc3)ccc2O[C@H]1CN(C)Cc1ccc(Oc2ccccc2)cc1,inactive,inactive,inactive
CCS(=O)(=O)Nc1ccc2c(c1)C(=O)N(C)C[C@H](OC)[C@@H](C)CN(C(=O)c1ccc3c(c1)OCO3)[C@@H](C)CO2,inactive,inactive,inactive
C[C@H]1CN([C@@H](C)CO)C(=O)Cc2cc(NS(=O)(=O)c3ccc(Cl)cc3)ccc2O[C@H]1CN(C)S(C)(=O)=O,inactive,inactive,inactive
C[C@H](CO)N1C[C@H](C)[C@H](CN(C)S(=O)(=O)c2ccccc2C#N)OCc2cn(nn2)CCCC1=O,inactive,inactive,inactive
Cc1noc(C)c1S(=O)(=O)Nc1ccc2c(c1)C(=O)N([C@@H](C)CO)C[C@H](C)[C@H](CN(C)S(=O)(=O)c1cn(C)cn1)O2,inactive,inactive,inactive
NCc1ccc(S(=O)(=O)N2CCOCC2)cc1,inactive,inactive,inactive
CNC[C@H]1Oc2ccc(NC(=O)Cn3cnnn3)cc2CC(=O)N([C@@H](C)CO)C[C@H]1C,inactive,inactive,inactive
COc1ccc([C@@H]([C@H](Cc2ccccc2)OC(C)=O)N2C[C@@H](NC(=O)C(Cl)(Cl)Cl)[C@@H]3[C@H]([C@@H]2Cc2ccccc2)N(C)O[C@H]3c2ccccc2)cc1,inactive,inactive,inactive
C[C@H](CO)N1C[C@H](C)[C@H](CN(C)Cc2ccc(Oc3ccccc3)cc2)Oc2c(NC(=O)CCCCCC(=O)Nc3ccccc3N)cccc2C1=O,inactive,inactive,inactive

SMILES,cytotoxicity call (HSkMC),cytotoxicity call (HepG2),growth inhibition call (S. aureus RN4220)
O=C(O)CCCCCCC(=O)Nc1ccc([C@H]2O[C@@H](CSc3nc(-c4ccccc4)c(-c4ccccc4)o3)C[C@H](c3ccc([N+](=O)[O-])cc3)O2)cc1,inactive,inactive,inactive
Cc1noc(C)c1S(=O)(=O)Nc1ccc2c(c1)C(=O)N([C@@H](C)CO)C[C@@H](C)[C@@H](CN(C)C(=O)NC1CCCCC1)O2,inactive,inactive,inactive
C[C@@H]1CCCCO[C@H](CN(C)S(=O)(=O)c2cccs2)[C@@H](C)CN([C@@H](C)CO)C(=O)c2cc(NC(=O)Nc3cccc4ccccc34)ccc2O1,inactive,inactive,inactive
C[C@@H]1CN([C@@H](C)CO)C(=O)c2cc(NC(=O)CCC(F)(F)F)ccc2O[C@@H](C)CCCCO[C@@H]1CN(C)S(=O)(=O)c1ccc(Cl)cc1,inactive,inactive,inactive
C[C@H](CO)N1C[C@H](C)[C@@H](CN(C)C(=O)Nc2cccc3ccccc23)Oc2ccc(NS(=O)(=O)c3ccc(Cl)cc3)cc2C1=O,inactive,inactive,inactive
C[C@H](CO)N1C[C@H](C)[C@@H](CN(C)C(=O)Nc2ccc(F)cc2)Oc2ccc(NC(=O)Cn3cnnn3)cc2C1=O,inactive,inactive,inactive
O=C(C[C@H]1CC[C@H]2NC[C@@H](O)COC[C@@H]2O1)NCCN1CCCC1,inactive,inactive,inactive
C[C@@H]1CCCCO[C@@H](CN(C)CC2CCCCC2)[C@H](C)CN([C@H](C)CO)C(=O)c2cc(NC(=O)Nc3ccc(C(F)(F)F)cc3)ccc2O1,active,active,inactive
COc1ccc(NC(=O)Nc2ccc3c(c2)C(=O)N([C@H](C)CO)C[C@H](C)[C@H](CN(C)C(=O)c2ccccc2)OCCCC[C@H](C)O3)cc1,inactive,inactive,inactive
C=CCNc1nc(C)nc(OC)n1,inactive,inactive,inactive
Cc1ccc(S(=O)(=O)N(C)C[C@H]2OCCCC[C@H](C)Oc3ccc(NC(=O)Cc4ccccc4)cc3C(=O)N([C@H](C)CO)C[C@H]2C)cc1,inactive,inactive,inactive
C[C@H](CO)N1C[C@H](C)[C@@H](CN(C)S(=O)(=O)c2cccs2)OCCCC[C@H](C)Oc2ccc(NC(=O)CCC(F)(F)F)cc2C1=O,inactive,inactive,inactive
COc1ccc2c3c(n(c2c1)C)[C@H](CO)N(CC1CCCCC1)C[C@]13CCN(CC1)Cc1nccs1,inactive,inactive,inactive
COc1ccc(S(=O)(=O)Nc2ccc3c(c2)C(=O)N([C@@H](C)CO)C[C@@H](C)[C@H](CN(C)C(=O)Nc2c(C)noc2C)OCCCC[C@H](C)O3)cc1,inactive,inactive,inactive
C[C@H](CO)N1C[C@H](C)[C@H](CN(C)C(=O)Nc2cccc3ccccc23)Oc2ccc(NC(=O)Nc3ccc(F)cc3)cc2C1=O,inactive,inactive,inactive
Cc1noc(C)c1NC(=O)N(C)C[C@@H]1OCCCC[C@@H](C)Oc2ccc(NC(=O)CCCCCC(=O)Nc3ccccc3N)cc2C(=O)N([C@H](C)CO)C[C@@H]1C,inactive,inactive,inactive
Cc1noc(C)c1S(=O)(=O)Nc1ccc2c(c1)CC(=O)N([C@H](C)CO)C[C@@H](C)[C@@H](CN(C)CC1CC1)O2,inactive,inactive,inactive
CCC(C)C1NC(=O)C(CCNCS(=O)(=O)[O-])NC(=O)C(NC(=O)C(CCNCS(=O)(=O)[O-])NC(=O)C(NC(=O)C(CCNCS(=O)(=O)[O-])NC(=O)CCCCC(C)C)C(C)O)CCNC(=O)C(C(C)O)NC(=O)C(CCNCS(=O)(=O)[O-])NC(=O)C(CCNCS(=O)(=O)[O-])NC(=O)C(C(C)CC)NC1=O.[Na+].[Na+].[Na+].[Na+].[Na+] (stereo not drawn),inactive,active,inactive
